# Source: PubChem BioAssay AID463173 (ICCB-Longwood Screening Facility, Harvard Medical School, 2010)
# Out of some 52,000 compounds screened, about 1,700 (3.3%) were called active. No stated cut-off is given here; in the data, active means survival mostly below about 52% (no sharp cut-off); inactive means mostly above about 56%. Some of the results follow.
# Tested on: Wild type
# Test: growth inhibition of S. aureus wild type versus tarO mutant, primary screen, teichoic acid synthesis inhibitors, RN4220, OD600 (AID 463173)
# Conditions: S. aureus RN4220 wild type/DeltatarO growth, OD600, 18 h, active compounds read low, screened at 18.75 µg/mL (by protocol)
row,SMILES,survival
1,Cc1nc(-c2ccc(S(=O)(=O)Nc3ccc(Cl)c(C(F)(F)F)c3)cc2)co1,inactive: 66%
2,CCN(CC)CCOC(=O)c1ccc(NC(=O)c2cc3c(s2)-c2ccccc2OC3)cc1,active: 5%
3,Cc1ccc2nc(COc3cccc(NC(=O)c4ccccc4Cl)c3)cc(=O)n2c1,inactive: 78%
4,CCOc1ccccc1CNC(=O)c1cnc2sc(N(CC)CC)nn2c1=O,inactive: 71%
5,CC(C)CN(CCNC(=O)c1cc(-c2cccs2)nc2ccccc12)CC(C)C,inactive: 68%
6,CCN(CC)CCOC(=O)c1ccc(Nc2c3c(nc4ccccc24)CCC3)cc1,inactive: 79%
7,COc1ccc(CNC(=O)C(CC(C)C)N2Cc3ccccc3C2=O)cc1 (centres undefined),inactive: 134%
8,CCOc1ccc(N(C)C(=O)c2oc(=O)c3ccccc3c2-c2ccccc2)cc1,inactive: 56%
9,CCc1ccc(-c2nc(CS(=O)CC(=O)NCCc3ccc(C)cc3)c(C)o2)cc1 (centres undefined),inactive: 85%
10,CC(OC(=O)CN1C(=O)COc2ccccc21)C(=O)NCc1cccs1 (centres undefined),inactive: 100%
11,CC(C)c1cnc2c(c1SCC(=O)NC(C)(C)C)c(=O)n(C)c(=O)n2C,inactive: 80%
12,Cc1ccc(N(CC(=O)N2CCN(c3cc(C)ccc3C)CC2)S(=O)(=O)c2c(C)nn(C)c2C)cc1,inactive: 72%
13,Cc1ccc(-c2nnc(N3CCOCC3)c3ccccc23)cc1S(=O)(=O)NCC1CCCO1 (centres undefined),inactive: 103%
14,CCn1cc2c(n1)-c1c(oc(C(=O)Nc3ccc(Br)cc3F)c1C)CC2,inactive: 86%
15,O=C(O)CC1c2ccccc2CCN1C(=O)Nc1cc(Cl)ccc1Cl (centres undefined),inactive: 78%
16,Cc1ccc(CN(C(=O)c2ccc(OCC(C)C)cc2)c2ccccn2)o1,inactive: 112%
17,CCOC(=O)c1noc2nc(C)n(CC(=O)Nc3cccc(OC)c3)c(=O)c12,inactive: 120%
18,CCCCC1CCC(C(=O)N2CC(=O)Nc3ccc(Br)cc3C2c2ccc(F)cc2)CC1 (centres undefined),inactive: 90%
19,COC(=O)COc1ccc(-c2nnc(Nc3ccc(O)cc3)c3ccccc23)cc1,inactive: 138%
20,Cc1cc(Cl)ccc1-n1c(CCC(=O)O)ccc1-c1cccs1,inactive: 79%
21,CCc1c(C)c2ccc(O)c(CN3CCN(c4cc(Cl)ccc4C)CC3)c2oc1=O,inactive: 80%
22,Cc1cccc2c1-c1sc(C(=O)Nc3ccc(F)cc3F)cc1CO2,inactive: 91%

row,SMILES,survival
1,CCc1ccc(S(=O)(=O)c2nnn3c2nc(N2CCN(c4ccccc4)CC2)c2cc(Cl)ccc23)cc1,inactive: 97%
2,CCC(=O)OCc1cc(=O)n2nc(C3CC3)sc2n1,inactive: 78%
3,Cc1ccc(NC(=O)CN2C(=O)COc3ccc(S(=O)(=O)N4CCCCCC4)cc32)c(C)c1,inactive: 99%
4,Cc1ccc(CNC(=O)C(=O)Nc2c3c(nn2-c2ccc(F)cc2)CSC3)cc1,inactive: 64%
5,Cc1ccc(CNC(=O)c2ccc(N3CCCC3)c(NC(=O)Nc3ccc(C)cc3)c2)cc1,inactive: 75%
6,CCOC(=O)c1cccc(NC(=O)N2CCOCC2)c1,inactive: 111%
7,CCN(CC)C(=O)Cn1c(=O)n(CCCCCC(=O)NCc2ccc3c(c2)OCO3)c(=O)c2sccc21,inactive: 134%
8,O=c1c2sc3ccccc3c2n(Cc2cccc(F)c2)c(=O)n1CCc1ccccc1,inactive: 80%
9,O=C(Cn1c(=O)oc2ccccc21)N1CCCCC1,inactive: 102%
10,Cn1cnnc1SCC(N)=O,inactive: 102%
11,CN(C(=O)Cn1nc(Cc2cccnc2)c2ccccc2c1=O)c1cccc(C(F)(F)F)c1,inactive: 75%
12,CCCc1cc(=O)oc2c3c(ccc12)OCN(Cc1ccccc1OC)C3,inactive: 135%
13,Cc1cc(C)cc(OCC(=O)Nc2cccc3cccnc23)c1,inactive: 76%
14,COC(=O)c1ccccc1NC(=O)[C@H]1O[C@@H]2OC(C)(C)O[C@@H]2[C@H]2OC(C)(C)O[C@H]21,inactive: 100%
15,CCOC(=O)c1ccc(N2C(=O)c3n[nH]c(-c4ccco4)c3C2c2ccc(C(=O)OC)cc2)cc1 (centres undefined),inactive: 85%
16,O=C(c1ccc2c(c1)N(Cc1ccc(Cl)cc1)C(=O)c1ccccc1S2(=O)=O)N1CCCC1,inactive: 95%
17,CCCCCCC(=O)Nc1ccc2nc3c(=O)n(C)c(=O)n(C)c3nc2c1C,inactive: 86%
18,CCCc1cnc2c(c1SCC(=O)NCc1ccc(C)cc1)c(=O)n(C)c(=O)n2C,active: -6%
19,CCCCOc1ccccc1C1CC(=O)Nc2ccc3ccccc3c21 (centres undefined),inactive: 96%
20,Cc1ccc(C(=O)N2CCN(c3ccccc3)CC2)cc1,inactive: 112%
21,CC(C)c1ccc(S(=O)(=O)N2CCN(Cc3cccc(F)c3)CC2)cc1,inactive: 133%
22,COc1ccccc1CCNC(=O)Cc1c(C)c2cc(Cl)c(O)cc2oc1=O,inactive: 76%
